The source of these data is paper PMC7904734, “ORP/Osh mediate cross-talk between ER-plasma membrane contact site components and plasma membrane SNAREs” (Cellular and Molecular Life Sciences: CMLS, 2020).

Amino acid sequences for entries named in this document (tags omitted).
UniProt P60880: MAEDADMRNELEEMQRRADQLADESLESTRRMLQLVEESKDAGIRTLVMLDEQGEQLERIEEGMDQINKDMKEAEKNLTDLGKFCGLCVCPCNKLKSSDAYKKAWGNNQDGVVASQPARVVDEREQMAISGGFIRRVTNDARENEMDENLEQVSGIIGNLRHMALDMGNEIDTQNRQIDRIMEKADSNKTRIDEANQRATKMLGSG

The labels stand for the following.
B1: Venus(N)·ORP7 (protein, UniProt Q9BZF2 1-842)
chain: MDFQERDPPFLPESAQSSKPSSAQQASELWEVVEEPRVRLGTEGVMPERQEGHLLKKRKWPLKGWHKRYFVLEDGILHYATTRQDITKGKLHGSIDVRLSVMSINKKAQRIDLDTEDNIYHLKIKSQDLFQSWVAQLRAHRLAHRLDMPRGSLPSTAHRKVPGAQLPTAATASALPGLGPREKVSSWLRDSDGLDRCSHELSECQGKLQELHRLLQSLESLHRIPSAPVIPTHQASVTTERPKKGKRTSRMWCTQSFAKDDTIGRVGRLHGSVPNLSRYLESRDSSGTRGLPPTDYAHLQRSFWALAQKVHSSLSSVLAALTMERDQLRDMHQGSELSRMGVSEASTGQRRLHSLSTSSDTTADSFSSLNPEEQEALYMKGRELTPQLSQTSILSLADSHTEFFDACEVLLSASSSENEGSEEEESCTSEITTSLSEEMLDLRGAERCQKGGCVPGRPMGPPRRRCLPAASGPGADVSLWNILRNNIGKDLSKVSMPVQLNEPLNTLQRLCEELEYSSLLDQASRIADPCERMVYIAAFAVSAYSSTYHRAGCKPFNPVLGETYECERPDRGFRFISEQVSHHPPISACHAESENFAFWQDMKWKNKFWGKSLEIVPVGTVNVSLPRFGDHFEWNKVTSCIHNVLSGQRWIEHYGEVLIRNTQDSSCHCKITFCKAKYWSSNVHEVQGAVLSRSGRVLHRLFGKWHEGLYRGPTPGGQCIWKPNSMPPDHERNFGFTQFALELNELTAELKRSLPSTDTRLRPDQRYLEEGNIQAAEAQKRRIEQLQRDRRKVMEENNIVHQARFFRRQTDSSGKEWWVTNNTYWRLRAEPGYGNMDGAVLW
B2: Venus(N)·ORP8 (protein, UniProt Q9BZF1 1-889)
chain: MEGGLADGEPDRTSLLGDSKDVLGPSTVVANSDESQLLTPGKMSQRQGKEAYPTPTKDLHQPSLSPASPHSQGFERGKEDISQNKDESSLSMSKSKSESKLYNGSEKDSSTSSKLTKKESLKVQKKNYREEKKRATKELLSTITDPSVIVMADWLKIRGTLKSWTKLWCVLKPGVLLIYKTQKNGQWVGTVLLNACEIIERPSKKDGFCFKLFHPLEQSIWAVKGPKGEAVGSITQPLPSSYLIIRATSESDGRCWMDALELALKCSSLLKRTMIREGKEHDLSVSSDSTHVTFYGLLRANNLHSGDNFQLNDSEIERQHFKDQDMYSDKSDKENDQEHDESDNEVMGKSEESDTDTSERQDDSYIEPEPVEPLKETTYTEQSHEELGEAGEASQTETVSEENKSLIWTLLKQVRPGMDLSKVVLPTFILEPRSFLDKLSDYYYHADFLSEAALEENPYFRLKKVVKWYLSGFYKKPKGLKKPYNPILGETFRCLWIHPRTNSKTFYIAEQVSHHPPISAFYVSNRKDGFCLSGSILAKSKFYGNSLSAILEGEARLTFLNRGEDYVMTMPYAHCKGILYGTMTLELGGTVNITCQKTGYSAILEFKLKPFLGSSDCVNQISGKLKLGKEVLATLEGHWDSEVFITDKKTDNSEVFWNPTPDIKQWRLIRHTVKFEEQGDFESEKLWQRVTRAINAKDQTEATQEKYVLEEAQRQAARDRKTKNEEWSCKLFELDPLTGEWHYKFADTRPWDPLNDMIQFEKDGVIQTKVKHRTPMVSVPKMKHKPTRQQKKVAKGYSSPEPDIQDSSGSEAQSVKPSTRRKKGIELGDIQSSIESIKQTQEEIKRNIMALRNHLVSSTPATDYFLQQKDYFIIFLLILLQVIINFMFK
B3: Venus(N)·ORP9L (protein, UniProt Q96SU4 1-736)
chain: MASIMEGPLSKWTNVMKGWQYRWFVLDYNAGLLSYYTSKDKMMRGSRRGCVRLRGAVIGIDDEDDSTFTITVDQKTFHFQARDADEREKWIHALEETILRHTLQLQGLDSGFVPSVQDFDKKLTEADAYLQILIEQLKLFDDKLQNCKEDEQRKKIETLKETTNSMVESIKHCIVLLQIAKDQSNAEKHADGMISTINPVDAIYQPSPLEPVISTMPSQTVLPPEPVQLCKSEQRPSSLPVGPVLATLGHHQTPTPNSTGSGHSPPSSSLTSPSHVNLSPNTVPEFSYSSSEDEFYDADEFHQSGSSPKRLIDSSGSASVLTHSSSGNSLKRPDTTESLNSSLSNGTSDADLFDSHDDRDDDAEAGSVEEHKSVIMHLLSQVRLGMDLTKVVLPTFILERRSLLEMYADFFAHPDLFVSISDQKDPKDRMVQVVKWYLSAFHAGRKGSVAKKPYNPILGEIFQCHWTLPNDTEENTELVSEGPVPWVSKNSVTFVAEQVSHHPPISAFYAECFNKKIQFNAHIWTKSKFLGMSIGVHNIGQGCVSCLDYDEHYILTFPNGYGRSILTVPWVELGGECNINCSKTGYSANIIFHTKPFYGGKKHRITAEIFSPNDKKSFCSIEGEWNGVMYAKYATGENTVFVDTKKLPIIKKKVRKLEDQNEYESRSLWKDVTFNLKIRDIDAATEAKHRLEERQRAEARERKEKEIQWETRLFHEDGECWVYDEPLLKRLGAAKH
B4: Venus(N)·ORP11 (protein, UniProt Q9BXB4 1-747)
chain: MQGGEPVSTMKVSESEGKLEGQATAVTPNKNSSCGGGISSSSSSRGGSAKGWQYSDHMENVYGYLMKYTNLVTGWQYRFFVLNNEAGLLEYFVNEQSRNQKPRGTLQLAGAVISPSDEDSHTFTVNAASGEQYKLRATDAKERQHWVSRLQICTQHHTEAIGKNNPPLKSRSFSLASSSNSPISQRRPSQNAISFFNVGHSKLQSLSKRTNLPPDHLVEVREMMSHAEGQQRDLIRRIECLPTSGHLSSLDQDLLMLKATSMATMNCLNDCFHILQLQHASHQKGSLPSGTTIEWLEPKISLSNHYKNGADQPFATDQSKPVAVPEEQPVAESGLLAREPEEINADDEIEDTCDHKEDDLGAVEEQRSVILHLLSQLKLGMDLTRVVLPTFILEKRSLLEMYADFMSHPDLFIAITNGATAEDRMIRFVEYYLTSFHEGRKGAIAKKPYNPIIGETFHCSWKMPKSEVASSVFSSSSTQGVTNHAPLSGESLTQVGSDCYTVRFVAEQVSHHPPVSGFYAECTERKMCVNAHVWTKSKFLGMSIGVTMVGEGILSLLEHGEEYTFSLPCAYARSILTVPWVELGGKVSVNCAKTGYSASITFHTKPFYGGKLHRVTAEVKHNITNTVVCRVQGEWNSVLEFTYSNGETKYVDLTKLAVTKKRVRPLEKQDPFESRRLWKNVTDSLRESEIDKATEHKHTLEERQRTEERHRTETGTPWKTKYFIKEGDGWVYHKPLWKIIPTTQPAE
B5: Venus(N)·ORP10 (protein, UniProt Q9BXB5 1-764)
chain: MERAVQGTDGGGGSNSSSRSSSRATSAGSSPSCSLAGRGVSSRSAAAGLGGGGSRSSPGSVAASPSGGGGRRREPALEGVLSKYTNLLQGWQNRYFVLDFEAGILQYFVNEQSKHQKPRGVLSLSGAIVSLSDEAPHMLVVYSANGEMFKLRAADAKEKQFWVTQLRACAKYHMEMNSKSAPSSRSRSLTLLPHGTPNSASPCSQRHLSVGAPGVVTITHHKSPAAARRAKSQYSGQLHEVREMMNQVEGQQKNLVHAIESLPGSGPLTALDQDLLLLKATSAATLSCLGECLNLLQQSVHQAGQPSQKPGASENILGWHGSKSHSTEQLKNGTLGSLPSASANITWAILPNSAEDEQTSQPEPEPNSGSELVLSEDEKSDNEDKEETELGVMEDQRSIILHLISQLKLGMDLTKVVLPTFILEKRSLLEMYADFMAHPDLLLAITAGATPEERVICFVEYYLTAFHEGRKGALAKKPYNPIIGETFHCSWEVPKDRVKPKRTASRSPASCHEHPMADDPSKSYKLRFVAEQVSHHPPISCFYCECEEKRLCVNTHVWTKSKFMGMSVGVSMIGEGVLRLLEHGEEYVFTLPSAYARSILTIPWVELGGKVSINCAKTGYSATVIFHTKPFYGGKVHRVTAEVKHNPTNTIVCKAHGEWNGTLEFTYNNGETKVIDTTTLPVYPKKIRPLEKQGPMESRNLWREVTRYLRLGDIDAATEQKRHLEEKQRVEERKRENLRTPWKPKYFIQEGDGWVYFNPLWKAH
B6: Venus(N)·ORP6 (protein, UniProt Q9BZF3 1-934)
chain: MSSDEKGISPAHKTSTPTHRSASSSTSSQRDSRQSIHILERTASSSTEPSVSRQLLEPEPVPLSKEADSWEIIEGLKIGQTNVQKPDKHEGFMLKKRKWPLKGWHKRFFVLDNGMLKYSKAPLDIQKGKVHGSIDVGLSVMSIKKKARRIDLDTEEHIYHLKVKSQDWFDAWVSKLRHHRLYRQNEIVRSPRDASFHIFPSTSTAESSPAANVSVMDGKMQPNSFPWQSPLPCSNSLPATCTTGQSKVAAWLQDSEEMDRCAEDLAHCQSNLVELSKLLQNLEILQRTQSAPNFTDMQANCVDISKKDKRVTRRWRTKSVSKDTKIQLQVPFSATMSPVRLHSSNPNLCADIEFQTPPSHLTDPLESSTDYTKLQEEFCLIAQKVHSLLKSAFNSIAIEKEKLKQMVSEQDHSKGHSTQMARLRQSLSQALNQNAELRSRLNRIHSESIICDQVVSVNIIPSPDEAGEQIHVSLPLSQQVANESRLSMSESVSEFFDAQEVLLSASSSENEASDDESYISDVSDNISEDNTSVADNISRQILNGELTGGAFRNGRRACLPAPCPDTSNINLWNILRNNIGKDLSKVSMPVELNEPLNTLQHLCEEMEYSELLDKASETDDPYERMVLVAAFAVSGYCSTYFRAGSKPFNPVLGETYECIREDKGFRFFSEQVSHHPPISACHCESKNFVFWQDIRWKNKFWGKSMEILPVGTLNVMLPKYGDYYVWNKVTTCIHNILSGRRWIEHYGEVTIRNTKSSVCICKLTFVKVNYWNSNMNEVQGVVIDQEGKAVYRLFGKWHEGLYCGVAPSAKCIWRPGSMPTNYELYYGFTRFAIELNELDPVLKDLLPPTDARFRPDQRFLEEGNLEAAASEKQRVEELQRSRRRYMEENNLEHIPKFFKKVIDANQREAWVSNDTYWELRKDPGFSKVDSPVLW

Results are given in words; binding and its absence hold for the method and conditions named. In cells and extracts the contact can be indirect. Some results given as binding are weak or reduced against the parent protein; the word gives no strength.

This test concerns the target Venus(C)·SNAP-25 (UniProt P60880). Kind of test: split reporter; BiFC of Venus(N) and Venus(C) fusions in transfected HEK293 cells, fixed after 24 h; co-transfection marker mCherry or mCherry·ORP.
For the molecule B1, the binding entry is “no binding”.

For the molecule B2, the binding result is listed as “binds”.

As to B3, the binding entry was “binds”.

In the case of B4, the binding result is on record as “binds”.

B5: the binding result is listed as “binds”.

Take B6: the binding entry is given as “no binding”.
